# This is one part of the list. The energies were worked out here from pooled read counts, against the library average; single values are noisy.
# Molecular target: T1, Pho4 (S. cerevisiae) (UniProt P07270)
# T1 sequence: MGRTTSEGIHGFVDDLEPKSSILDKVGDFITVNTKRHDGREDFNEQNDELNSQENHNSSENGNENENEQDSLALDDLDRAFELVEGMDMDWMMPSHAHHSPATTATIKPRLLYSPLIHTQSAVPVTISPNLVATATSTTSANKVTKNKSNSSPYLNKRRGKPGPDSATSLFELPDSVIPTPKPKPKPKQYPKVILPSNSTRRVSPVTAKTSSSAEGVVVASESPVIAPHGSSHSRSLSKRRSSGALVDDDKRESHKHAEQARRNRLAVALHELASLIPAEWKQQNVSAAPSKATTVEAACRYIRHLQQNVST
# Assay: relative binding free energy (BET-seq); higher = weaker binding
# Conditions: reference: library average
row,Sequence,relative binding free energy
1,TATAGCACGTGGGATA,-0.23 kcal/mol
2,TGGGGCACGTGCAGCT,-0.05 kcal/mol
3,CTTTTCACGTGAGTGG,0.38 kcal/mol
4,CTGTTCACGTGGGAAG,0.15 kcal/mol
5,TTAATCACGTGTTTCG,0.26 kcal/mol
6,TCAGGCACGTGTAAGG,0.07 kcal/mol
7,TGGAACACGTGTTGAA,0.08 kcal/mol
8,CTCATCACGTGGTGGT,0.13 kcal/mol
9,AGGCCCACGTGGTAGT,-0.1 kcal/mol
10,TGGGGCACGTGAACCG,0.07 kcal/mol
11,CATGTCACGTGAGAGT,0.3 kcal/mol
12,TGATGCACGTGGATGT,0.08 kcal/mol
13,GGTATCACGTGGCGCG,0.14 kcal/mol
14,CTGATCACGTGAAGGT,0.33 kcal/mol
15,GTATTCACGTGTCGTG,0.18 kcal/mol
16,TTGAACACGTGGTTAT,0.09 kcal/mol
17,TAGGGCACGTGGTGGT,-0.12 kcal/mol
18,GGAAACACGTGTATAT,0.06 kcal/mol
19,ATAGACACGTGCGTGG,-0.06 kcal/mol
20,GGCTGCACGTGTGGCC,0.19 kcal/mol
21,GTAGTCACGTGGGGCA,-0.07 kcal/mol
22,GTACACACGTGTGGTA,0.19 kcal/mol
23,CGGGGCACGTGTAGTC,-0.07 kcal/mol
24,TTCGGCACGTGTGGAC,0.11 kcal/mol
25,GAAGACACGTGGTTTT,0.18 kcal/mol
26,GGCGTCACGTGTGTGT,0.27 kcal/mol

row,Sequence,relative binding free energy
1,GTGCGCACGTGAGTGC,0.21 kcal/mol
2,TTTTACACGTGGCTGC,0.1 kcal/mol
3,GGTGCCACGTGGTGAA,-0.05 kcal/mol
4,ATATGCACGTGCGAGT,-0.06 kcal/mol
5,GTGTTCACGTGCTAGA,0.24 kcal/mol
6,AAATGCACGTGTGGGG,0.02 kcal/mol
7,TCAGTCACGTGTAGTG,0.12 kcal/mol
8,GTGTGCACGTGACGAG,0.21 kcal/mol
9,GACAGCACGTGTTTGT,-0.04 kcal/mol
10,TCTGACACGTGGGTGT,-0.08 kcal/mol
11,ATTATCACGTGTTGGC,0.09 kcal/mol
12,GGTCGCACGTGGGCGA,-0.25 kcal/mol
13,TTCTACACGTGATTTT,0.2 kcal/mol
14,GTGTTCACGTGGGCCT,0.15 kcal/mol
15,TTGTTCACGTGATATT,0.4 kcal/mol
16,GCGGTCACGTGAGTAG,0.39 kcal/mol
17,CATTGCACGTGGTATT,-0.1 kcal/mol
18,TTGTGCACGTGCAGTA,-0.03 kcal/mol
19,TGCGTCACGTGGGCGT,-0.07 kcal/mol
20,TTAGGCACGTGAGGAG,0.25 kcal/mol
21,GTACACACGTGTCGTG,0.14 kcal/mol
22,CTGGTCACGTGTGTTC,0.08 kcal/mol
23,TGGGTCACGTGACATT,0.12 kcal/mol
24,ATGTACACGTGCGGTT,0.2 kcal/mol
25,AGGATCACGTGTTCTG,-0.02 kcal/mol
26,GTAAGCACGTGGAGTA,-0.11 kcal/mol

row,Sequence,relative binding free energy
1,CATTTCACGTGATAGG,0.27 kcal/mol
2,AGGGCCACGTGAGCTG,0.13 kcal/mol
3,TCGTGCACGTGTTTTA,-0.02 kcal/mol
4,ATGTCCACGTGTTTTA,-0.01 kcal/mol
5,GATTTCACGTGGATAT,0.31 kcal/mol
6,GTCGACACGTGGGTGA,-0.07 kcal/mol
7,GTGGTCACGTGAGTCG,0.37 kcal/mol
8,TGGTGCACGTGTCTGT,-0.03 kcal/mol
9,AAGTACACGTGGTGGT,-0.01 kcal/mol
10,GTGGGCACGTGGTTTG,-0.04 kcal/mol
11,TTGACCACGTGGTGGC,0 kcal/mol
12,CAAAGCACGTGGGGTG,-0.3 kcal/mol
13,AATAGCACGTGGTGGC,-0.15 kcal/mol
14,TACGTCACGTGTGATG,0.07 kcal/mol
15,TGGTGCACGTGAAAGT,0.3 kcal/mol
16,TGCTTCACGTGTGGGG,0.25 kcal/mol
17,TTAACCACGTGGGTGT,-0.2 kcal/mol
18,TGCTACACGTGAAGGG,0.3 kcal/mol
19,AGTACCACGTGAAGGG,0.22 kcal/mol
20,TGGCGCACGTGTAGAG,0 kcal/mol
21,TTAATCACGTGACGTT,0.19 kcal/mol
22,GGTAGCACGTGGGGCC,-0.12 kcal/mol
23,GGGCTCACGTGTCGGG,0.18 kcal/mol
24,GTTCACACGTGGGCGG,-0.03 kcal/mol
25,AGATTCACGTGGGTGA,0.12 kcal/mol
26,TGCAACACGTGTGGAG,0.06 kcal/mol

row,Sequence,relative binding free energy
1,TTTTGCACGTGTTGTC,0.08 kcal/mol
2,AGGCGCACGTGAGTTT,0.06 kcal/mol
3,TGATGCACGTGGGCTA,-0.13 kcal/mol
4,AGAAGCACGTGATAGT,0.22 kcal/mol
5,AGGTTCACGTGGGAAT,0.26 kcal/mol
6,AATTACACGTGTATGG,-0.03 kcal/mol
7,CGGCTCACGTGGTGGC,0.18 kcal/mol
8,AATCGCACGTGTTTTG,0.21 kcal/mol
9,ATGTACACGTGTATGC,0.08 kcal/mol
10,GACCTCACGTGGGGGG,-0.06 kcal/mol
11,GCTTTCACGTGATGGA,0.43 kcal/mol
12,TCGTGCACGTGTTAAG,0.07 kcal/mol
13,CAATACACGTGTTTGT,0.04 kcal/mol
14,TTTGCCACGTGTCGGT,-0.1 kcal/mol
15,CATGACACGTGGGAGG,-0.02 kcal/mol
16,GGTTGCACGTGGGAAG,0.05 kcal/mol
17,GTTAACACGTGGTTTG,0.02 kcal/mol
18,GTGGGCACGTGGTACG,-0.13 kcal/mol
19,AGGTGCACGTGTATGG,-0.04 kcal/mol
20,CAGAGCACGTGGGGGC,-0.24 kcal/mol
21,GTCTCCACGTGTTGGT,0.02 kcal/mol
22,CGGTTCACGTGGGTAC,0.16 kcal/mol
23,GTTTTCACGTGGCATT,0.14 kcal/mol
24,AAGAGCACGTGTGTGT,-0.22 kcal/mol
25,GGTGGCACGTGCAAAG,-0.08 kcal/mol
26,GTCGTCACGTGATGGA,0.15 kcal/mol

row,Sequence,relative binding free energy
1,TGAAACACGTGTGTTG,-0.05 kcal/mol
2,TCGGTCACGTGTGGGG,0.16 kcal/mol
3,GTTGACACGTGGCGAG,-0.01 kcal/mol
4,TATGCCACGTGGCGGT,-0.07 kcal/mol
5,GGGATCACGTGCGGCG,0.11 kcal/mol
6,ACTTTCACGTGGGGCT,0.05 kcal/mol
7,TCGTACACGTGTAGTT,0.08 kcal/mol
8,TAGTGCACGTGGTTTA,-0.02 kcal/mol
9,AGAGACACGTGGGTAG,-0.12 kcal/mol
10,TTTGTCACGTGTTAAA,0.2 kcal/mol
11,TTTTACACGTGTTGAG,0.21 kcal/mol
12,CTGTGCACGTGTTAGA,-0.06 kcal/mol
13,CAAGGCACGTGATATG,0.07 kcal/mol
14,AGTTCCACGTGTAGGT,-0.03 kcal/mol
15,ATATACACGTGATGGT,0.04 kcal/mol
16,GGAGCCACGTGGGGAG,-0.16 kcal/mol
17,TTGGACACGTGAACGT,0.24 kcal/mol
18,ATGTTCACGTGGGATA,0.22 kcal/mol
19,TATTGCACGTGGGAGG,-0.12 kcal/mol
20,TGGGCCACGTGGGTAG,-0.15 kcal/mol
21,TGATGCACGTGCGTGA,-0.17 kcal/mol
22,GGAAACACGTGTGGTA,0.05 kcal/mol
23,GCATGCACGTGATTGG,0 kcal/mol
24,TCTTGCACGTGGTTAT,-0.08 kcal/mol
25,TTGAACACGTGTTGGA,0.08 kcal/mol
26,GTGTGCACGTGGTTGG,0 kcal/mol

row,Sequence,relative binding free energy
1,ACTTTCACGTGTAGGT,0.18 kcal/mol
2,TTAGTCACGTGGTGGT,0.17 kcal/mol
3,GGGGCCACGTGATAGT,0.06 kcal/mol
4,GGTGACACGTGAGTGC,0.2 kcal/mol
5,ATAGACACGTGATGGT,0.08 kcal/mol
6,TTTTACACGTGGGTGC,-0.03 kcal/mol
7,GTGTTCACGTGCTGCG,0.14 kcal/mol
8,ATGGACACGTGGGAAG,-0.08 kcal/mol
9,GTGGTCACGTGAGATA,0.4 kcal/mol
10,ATGGTCACGTGTCAAT,0.14 kcal/mol
11,GTGGTCACGTGTCGTG,0.14 kcal/mol
12,GACGGCACGTGTGCGT,-0.04 kcal/mol
13,TCGGGCACGTGCCGGT,-0.11 kcal/mol
14,TGGTACACGTGGAGGC,0.16 kcal/mol
15,TCTCACACGTGGGGGT,-0.17 kcal/mol
16,GCGGGCACGTGGGTGA,-0.27 kcal/mol
17,TGGAACACGTGTCAGG,0.14 kcal/mol
18,CTGCGCACGTGTGGGA,-0.09 kcal/mol
19,TTTTTCACGTGGCATC,0.38 kcal/mol
20,GTTTTCACGTGCATAA,0.5 kcal/mol
21,GGATTCACGTGTTTGG,0.27 kcal/mol
22,GGATTCACGTGAAATG,0.5 kcal/mol
23,GTTGTCACGTGGATCT,-0.08 kcal/mol
24,TTTTTCACGTGTGTGC,0.33 kcal/mol
25,ATAAGCACGTGGTTTT,-0.14 kcal/mol
26,GGGTACACGTGAAATG,0.4 kcal/mol

row,Sequence,relative binding free energy
1,ATGTTCACGTGTGGGC,0.34 kcal/mol
2,GTAAACACGTGGGTCG,0.01 kcal/mol
3,ATGGGCACGTGGCGCG,-0.18 kcal/mol
4,TCAGACACGTGGGAGT,-0.07 kcal/mol
5,TGCGTCACGTGTTGTT,0.16 kcal/mol
6,TTGCTCACGTGTGGTT,0.25 kcal/mol
7,AATCACACGTGTTGGT,-0.04 kcal/mol
8,GTAGTCACGTGTCGCT,0.12 kcal/mol
9,TTTCACACGTGTGCGG,0.1 kcal/mol
10,ACTGTCACGTGACGGT,0.24 kcal/mol
11,CCTTTCACGTGTGTGT,0.2 kcal/mol
12,CGTAGCACGTGTTGAG,0.04 kcal/mol
13,GATTTCACGTGGAATT,0.49 kcal/mol
14,GGTATCACGTGAGCGT,0.35 kcal/mol
15,GTTCGCACGTGGGCTA,-0.1 kcal/mol
16,TGAGCCACGTGAAGGG,0.2 kcal/mol
17,TATCACACGTGGGTGG,-0.1 kcal/mol
18,GTAATCACGTGGCTGT,0.03 kcal/mol
19,TGGAGCACGTGGCGAG,-0.26 kcal/mol
20,TAGTCCACGTGGTATG,-0.08 kcal/mol
21,CGCTACACGTGAGGTG,0.28 kcal/mol
22,TGTTTCACGTGTAACG,0.32 kcal/mol
23,TGGTGCACGTGCTTCA,-0.09 kcal/mol
24,AAGGGCACGTGCAGGA,-0.15 kcal/mol
25,AATTGCACGTGTTAGG,0.05 kcal/mol
26,TTGTCCACGTGTGGCG,-0.06 kcal/mol

row,Sequence,relative binding free energy
1,TCAGTCACGTGTGGTG,0.19 kcal/mol
2,TATTGCACGTGAGTTC,0.17 kcal/mol
3,GGGGTCACGTGGGACT,-0.03 kcal/mol
4,GAATGCACGTGGGATA,0.02 kcal/mol
5,GGTTACACGTGGATTA,0.06 kcal/mol
6,GTTCGCACGTGGTATA,-0.06 kcal/mol
7,TTTTTCACGTGGGGGC,0.27 kcal/mol
8,TGAAGCACGTGAGTAT,0.18 kcal/mol
9,TAGTGCACGTGTATTG,-0.08 kcal/mol
10,GCTTGCACGTGTTTGA,0.08 kcal/mol
11,AAAATCACGTGATAGT,0.49 kcal/mol
12,ATAATCACGTGGGCTA,0 kcal/mol
13,ATTCACACGTGTTGTG,0.15 kcal/mol
14,TTTTACACGTGACTGT,0.23 kcal/mol
15,AATGTCACGTGCGGGT,-0.07 kcal/mol
16,TGTGACACGTGTTCGA,-0.02 kcal/mol
17,AGAATCACGTGTAAGT,0.23 kcal/mol
18,CGATTCACGTGGAAGG,0.31 kcal/mol
19,CTCGGCACGTGGTGGT,-0.2 kcal/mol
20,CGTGTCACGTGTTTTC,-0.01 kcal/mol
21,ATCTGCACGTGGCGGT,-0.12 kcal/mol
22,GTCTTCACGTGACGGT,0.49 kcal/mol
23,GTGAGCACGTGTTTAA,-0.14 kcal/mol
24,TGTCGCACGTGTGACT,0.02 kcal/mol
25,CTGATCACGTGGGGGA,0.01 kcal/mol
26,AGCTGCACGTGGTAGT,-0.02 kcal/mol

row,Sequence,relative binding free energy
1,GAAGGCACGTGTCGGC,0.07 kcal/mol
2,ACTGTCACGTGTGGGG,0.18 kcal/mol
3,TTTTGCACGTGCCGTG,-0.02 kcal/mol
4,ATTGTCACGTGTGGCG,0.17 kcal/mol
5,GTTGTCACGTGCTTGT,0.18 kcal/mol
6,GTCTTCACGTGCTTGG,0.37 kcal/mol
7,TGTATCACGTGGATGA,0.09 kcal/mol
8,TTGTTCACGTGTGGGA,0.27 kcal/mol
9,CAATACACGTGTGGTG,0.05 kcal/mol
10,TAGGACACGTGCGGTT,0 kcal/mol
11,TATGTCACGTGGATAT,0.04 kcal/mol
12,TCGGTCACGTGGAGTG,0.03 kcal/mol
13,CTTTTCACGTGATTAT,0.31 kcal/mol
14,CCTTTCACGTGGGAGG,0.19 kcal/mol
15,TTTGTCACGTGCAAAG,0.07 kcal/mol
16,TTGTCCACGTGGAGTA,0.08 kcal/mol
17,CAATACACGTGGGTGG,-0.16 kcal/mol
18,AGGGACACGTGATTTA,0.18 kcal/mol
19,GGTATCACGTGTGGTC,0.21 kcal/mol
20,AGTTGCACGTGGCCTG,-0.07 kcal/mol
21,TACTTCACGTGTGTGT,0.25 kcal/mol
22,AATAGCACGTGTGCAT,-0.08 kcal/mol
